# The other results are listed elsewhere or left out. One pool of 16,384 single-stranded DNAs met each Rep nickase domain in vitro at 3 µM enzyme and 37 °C for 1 h; the strands have 90 letters, of which the middle is given. Numbers give uncut DNA relative to the enzyme-free pool, as log2; the lower, the more was cut; hits are not called. Shares of all reads are compared; uncut strands gain when others are lost, and binding without cutting may add a little.
# Columns and labels:
# Test in all cases: uncleaved DNA left, log2 of reads against the no-enzyme library (log2 ratio); higher = less cleavage (more negative = more Rep cleavage of the k-mer); sequences stand for … in CTCGTCCG…ACCGGAGA
# [1] = test system: T1, Rep nickase domain of Muscovy duck circovirus
# T1 sequence (protein, residues 1-111, tag omitted): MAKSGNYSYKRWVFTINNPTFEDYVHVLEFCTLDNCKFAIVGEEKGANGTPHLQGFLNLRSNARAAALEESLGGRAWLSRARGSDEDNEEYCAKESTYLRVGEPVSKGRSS
# Procedure: (§1)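 A pool of 90-nt single-stranded DNAs with seven random bases just before the constant AC of the nick site (name = the seven bases) was cut by 3 µM recombinant His6-SUMO-tagged Rep nickase domain (300 nM DNA, 50 mM HEPES pH 8.0, 50 mM NaCl, 1 mM MnCl2, 1 h, 37 °C, three replicates). Uncut DNA was amplified and sequenced.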
# [2] = test system: T2, Rep nickase domain of banana bunchy top virus
# T2 sequence (protein, residues 1-94, tag omitted): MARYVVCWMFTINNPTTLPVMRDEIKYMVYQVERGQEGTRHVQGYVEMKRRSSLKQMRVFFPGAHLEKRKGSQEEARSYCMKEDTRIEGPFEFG
# Procedure: as §1
# [3] = test system: T3, Rep nickase domain of cabbage leaf curl virus
# T3 sequence (protein, residues 1-116, tag omitted): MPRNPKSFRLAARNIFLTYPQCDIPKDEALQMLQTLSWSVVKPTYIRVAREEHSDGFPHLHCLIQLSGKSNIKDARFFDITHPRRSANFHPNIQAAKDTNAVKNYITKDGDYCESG
# Procedure: as §1
# [4] = test system: T4, Rep nickase domain of chickpea chlorotic dwarf virus
# T4 sequence (protein, residues 1-124, tag omitted): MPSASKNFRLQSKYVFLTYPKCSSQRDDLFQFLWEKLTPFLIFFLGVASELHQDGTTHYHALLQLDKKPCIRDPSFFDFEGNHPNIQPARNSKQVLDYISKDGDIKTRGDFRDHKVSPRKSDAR
# Procedure: as §1
# [5] = test system: T5, Rep nickase domain of faba bean necrotic yellows virus
# T5 sequence (protein, residues 1-98, tag omitted): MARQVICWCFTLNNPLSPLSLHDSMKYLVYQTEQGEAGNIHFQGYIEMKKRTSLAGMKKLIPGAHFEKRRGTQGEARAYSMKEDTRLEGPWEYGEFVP
# Procedure: as §1
# [6] = test system: T6, Rep nickase domain of maize striate mosaic virus
# T6 sequence (protein, residues 1-117, tag omitted): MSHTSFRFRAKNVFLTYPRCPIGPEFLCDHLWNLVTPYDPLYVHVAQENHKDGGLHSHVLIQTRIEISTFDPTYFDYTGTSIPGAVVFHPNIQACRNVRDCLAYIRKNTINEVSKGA
# Procedure: as §1
# [7] = test system: T7, Rep nickase domain of porcine circovirus 2
# T7 sequence (protein, residues 2-116, tag omitted): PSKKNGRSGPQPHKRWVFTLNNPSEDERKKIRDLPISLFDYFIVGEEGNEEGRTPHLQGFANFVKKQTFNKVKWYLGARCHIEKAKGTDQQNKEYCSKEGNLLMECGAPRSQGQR
# Procedure: as §1
# [8] = test system: T8, Rep nickase domain of tomato yellow leaf curl virus
# T8 sequence (protein, residues 1-136, tag omitted): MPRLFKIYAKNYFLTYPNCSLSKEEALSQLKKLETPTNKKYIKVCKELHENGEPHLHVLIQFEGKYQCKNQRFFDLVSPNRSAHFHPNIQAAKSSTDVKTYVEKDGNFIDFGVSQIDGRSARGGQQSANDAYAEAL
# Procedure: as §1
# [9] = test system: T9, Rep nickase domain of wheat dwarf virus
# T9 sequence (protein, residues 1-137, tag omitted): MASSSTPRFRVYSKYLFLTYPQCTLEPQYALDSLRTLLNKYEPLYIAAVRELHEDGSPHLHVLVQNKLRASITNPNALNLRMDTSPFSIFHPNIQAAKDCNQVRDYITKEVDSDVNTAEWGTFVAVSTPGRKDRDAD
# Procedure: as §1
Sequence,uncleaved DNA left (log2) [1],uncleaved DNA left (log2) [2],uncleaved DNA left (log2) [3],uncleaved DNA left (log2) [4],uncleaved DNA left (log2) [5],uncleaved DNA left (log2) [6],uncleaved DNA left (log2) [7],uncleaved DNA left (log2) [8],uncleaved DNA left (log2) [9]
ACACTTG,0.0769,0.0512,-0.759,-0.954,0.134,-0.985,0.1,0.0514,-0.0726
CCGAATG,-0.019,-0.153,0.0568,0.48,-0.0385,1.25,0.087,0.00255,0.00513
GACGTGA,-0.0471,-0.263,0.102,0.396,-0.185,0.378,0.0242,-0.124,-0.0977
CGACCTC,-0.0222,-0.0389,0.0985,0.555,-0.0513,0.997,0.0814,-0.0809,0.0568
GGCCGCA,-0.0429,-0.0618,0.387,0.909,-0.0484,1.25,0.0613,-0.0895,0.0365
CTCCAGC,-0.0404,-0.0011,-0.157,-0.43,-0.00382,-0.95,0.0614,-0.0334,-0.0232
TATGTTT,-0.246,-1.36,-2.5,-2.73,0.057,-0.0627,-1.47,0.0382,-0.36
TGCAGTG,0.0159,-0.121,-0.524,-0.451,-0.00459,-0.864,0.0273,-0.0521,-0.175
AGGGGAG,0.243,0.226,-0.0883,0.385,0.194,-0.32,0.242,0.014,-0.00727
TGCGGTA,-0.144,0.000518,-0.412,-0.664,-0.206,-0.883,-0.367,0.0951,-0.0401
CCCAAGT,-0.0412,-0.116,-0.0191,-0.214,-0.093,-0.655,-0.0774,-0.158,-0.142
GTTAGCG,0.106,0.073,-0.685,0.408,0.0945,-0.691,0.127,0.0541,0.0307
TAAGAAT,0.0505,0.0823,-1.01,-2.03,0.154,1.17,0.159,0.0782,-0.379
TTGCTCT,-0.0885,-0.0721,-0.467,-1.6,0.0105,-1.15,-0.169,0.0213,-0.136
GAATCTT,-2.96,-0.402,-3.14,-2.85,-0.0299,-1.97,-3.28,-0.0792,-3.05
GGCCGGA,0.111,0.0465,0.67,1.43,0.0165,1.81,0.219,0.0527,0.129

Sequence,uncleaved DNA left (log2) [1],uncleaved DNA left (log2) [2],uncleaved DNA left (log2) [3],uncleaved DNA left (log2) [4],uncleaved DNA left (log2) [5],uncleaved DNA left (log2) [6],uncleaved DNA left (log2) [7],uncleaved DNA left (log2) [8],uncleaved DNA left (log2) [9]
AGCATTC,0.000986,0.0469,-0.165,-0.125,-0.0479,-0.833,-0.235,-0.0147,-0.0383
TTTCGCT,-0.037,0.0712,-0.383,-1.52,-0.0543,-1.19,-0.255,0.0327,-0.128
TGACTCT,-0.00416,-0.161,0.0744,-0.947,-0.0201,0.307,-0.156,-0.16,-0.168
GAACCTC,0.0247,0.0702,0.254,0.282,0.0868,1.07,-0.0308,0.121,0.149
TCTCTAA,0.0255,-0.0725,0.085,-0.278,0.0286,-0.338,0.0359,-0.111,0.0215
GTTCATG,-0.134,-0.0769,0.0309,0.301,-0.0377,0.173,-0.0119,-0.00391,-0.0848
TGAATCA,0.112,0.128,0.436,-0.0463,0.0521,0.597,0.066,0.144,0.214
CTCGTGA,-0.0748,0.107,-0.229,-0.616,-0.107,-1.04,-0.0128,-0.112,0.0513
AAAGGTA,0.147,0.162,0.241,1.15,0.0841,1.45,0.223,-0.0149,0.106
TCAAACC,-0.0343,0.101,0.0158,-0.697,0.00789,-0.571,-0.484,0.071,0.0653
CCCAGGT,0.00317,0.059,0.333,1.23,-0.137,1.44,0.282,-0.105,0.141
TTTGAGG,0.0708,0.067,0.44,1.23,0.021,1.43,0.213,0.0153,0.0488
GTGCAGG,0.077,0.0016,0.157,0.695,-0.00821,0.415,0.153,-0.0864,-0.0184
CCATGAT,-0.393,-0.00202,-0.201,-0.157,-0.0825,0.121,-1.09,-0.007,-0.026
ACGCCTC,-0.153,-0.0854,0.0483,0.23,-0.194,0.634,-0.02,-0.115,0.0151
TTCGTTT,0.00876,-0.0231,0.0158,-1.6,0.0785,-0.108,-0.106,0.0094,-0.0873
